Laboratory results as given in PubChem BioAssay AID1159614 (National Center for Advancing Translational Sciences (NCATS), 2016).
Hit rate of the full screen: of about 45,000 compounds, about 65 (0.1%) were called active. Calls follow the shape of the dose curve; as a rule, active = well fitted activation curve with a large enough effect; inconclusive = small, poorly fitted or top-dose-only effect; inactive = no such curve, though single readings can be large or run the other way. The list shows a part of the results.

These compounds were tested against Galactocerebrosidase (Homo sapiens) (UniProt P54803) (assay: A Novel Cell-Based Assay to Identify Small Molecules for B -Galactocerebrosidase). Conditions: 145M-Twi-hGALC-G270D cells, HMU-beta-Gal fluorescence, 48 h; series mostly up to 57.5 µM; activation: at the top concentration.
Method in brief: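 qHTS, 1536-well; 145M-Twi-hGALC-G270D cells (WT line also made) in DMEM/F12 + 10% FBS; compound incubation on live cells; HMU-β-gal 0.1 mM final, pH 5.2, NaTC; carbonate stop; fluorescence increase = enhanced residual activity.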
Also: 0% is about no effect; nearly all actives have a fitted effect of over 65% in size.

UniProt P54803, sequence (P54803 whole entry, looked up): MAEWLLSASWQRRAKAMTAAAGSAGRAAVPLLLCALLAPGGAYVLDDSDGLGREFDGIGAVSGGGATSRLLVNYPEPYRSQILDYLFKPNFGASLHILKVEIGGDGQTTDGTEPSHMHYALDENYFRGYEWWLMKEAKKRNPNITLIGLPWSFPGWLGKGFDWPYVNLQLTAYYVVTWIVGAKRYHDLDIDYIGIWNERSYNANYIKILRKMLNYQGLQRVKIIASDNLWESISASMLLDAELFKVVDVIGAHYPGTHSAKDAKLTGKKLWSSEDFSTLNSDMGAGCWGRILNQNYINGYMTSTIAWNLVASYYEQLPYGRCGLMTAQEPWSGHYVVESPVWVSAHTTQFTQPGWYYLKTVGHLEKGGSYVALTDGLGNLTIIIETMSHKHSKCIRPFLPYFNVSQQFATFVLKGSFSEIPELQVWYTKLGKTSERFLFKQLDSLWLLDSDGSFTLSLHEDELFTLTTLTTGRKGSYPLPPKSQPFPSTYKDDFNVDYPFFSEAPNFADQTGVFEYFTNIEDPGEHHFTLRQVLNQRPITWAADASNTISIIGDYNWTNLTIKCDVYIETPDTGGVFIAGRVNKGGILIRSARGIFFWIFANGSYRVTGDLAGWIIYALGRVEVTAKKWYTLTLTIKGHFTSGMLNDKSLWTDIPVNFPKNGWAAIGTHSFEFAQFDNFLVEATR

activation, inactive:
COc1ccc(-n2c(=O)c3sc4ccccc4c3n(CC(=O)N3CCCC3)c2=O)cc1 -15.7%, CC(C)(C)OC(=O)N1CCC(c2c(C(=O)Nc3ccc4c(c3)OCO4)cnn2-c2ccc(F)cc2F)CC1 -9.17%, Cc1ccc(CNC(=O)C(=O)NCC(c2cccs2)S(=O)(=O)c2cccs2)cc1 (stereo not drawn) -0.293%, Cc1cc(-c2ccc(C)c(S(=O)(=O)N(Cc3cccs3)C(C)C)c2)on1 -7.92%, COc1ccc(NC(=O)/C(C#N)=C/c2ccc(C)o2)cc1 -3.84%, CCc1ccc2occ(CC(=O)Nc3c(C(=O)Nc4ccc(Cl)cc4)oc4ccccc34)c2c1 -14.5%, CN(C)CCNC(=O)c1ccc2nc(CCc3ccccc3)oc2c1 -6.23%, CN(C)c1ccc(NC(=O)Cn2c(SCc3ccc(F)cc3)nc3cccnc32)cc1 22.5%, CCc1ccc(NC(=O)CSC2=Nc3ccccc3C3=NC(CC(=O)NCc4ccc5c(c4)OCO5)C(=O)N23)cc1 (stereo not drawn) -10.4%, Cc1ccccc1Cn1c(=O)n(CCCCC(=O)NCCc2ccccc2)c(=O)c2ccccc21 -14.6%, Cc1cccc(NC(=O)CCNS(=O)(=O)c2ccc3c(c2)CCCC(=O)N3)c1C -18.3%, CCOC(=O)c1[nH]c2c(c1Cc1ccccc1)C(=O)CC(c1ccc(OC)cc1)C2 (stereo not drawn) -9.12%, O=C(O)CCCC(=O)N1CCc2cc(S(=O)(=O)NCc3ccccc3)ccc21 -8.99%, CCSc1nc2c([nH]c3ccccc32)c(=O)n1-c1ccc(OC)cc1 -8.6%, CCOC(=O)c1ccc(NC(=O)c2cnc(N3CCCC3)nc2C)cc1 -15%, CN(C)c1ccc(CNc2nc(-c3ccco3)nn2S(C)(=O)=O)cc1 -27%, CC1CCCN(c2ncnc3c2nc2n3CCCCC2)C1 (stereo not drawn) -9.52%, COCCn1c(SCC(=O)c2ccccc2)nc2cc(C(=O)NC3CCCC3)ccc2c1=O 1.76%, CCc1ccc2nc(N(Cc3cccnc3)C(=O)c3cccs3)sc2c1 -50.1%, CCCC(=O)Nc1ccc(NC(=O)c2sc3ccccc3c2Cl)cc1 -11%, CCCCN(C)CCCNC(=O)Cn1nc(CC)n2c(cc3sc(C)cc32)c1=O -14.8%, Cc1cc2c(cc1C)C(c1cccc(OC(C)C)c1)CC(=O)N2 (stereo not drawn) -14.4%, COc1ccc(C(=O)N2CCN(C(=O)COc3ccc(Br)cc3)CC2)cc1OC -12.8%, CCOC(=O)CSC1=Nc2ccccc2C2=NC(CCC(=O)NCc3ccccc3)C(=O)N12 (stereo not drawn) 1.13%, CC(=O)c1cccc(NC(=O)c2noc3c2CC(C)CC3)c1 (stereo not drawn) -5.15%, COc1ccc(NC(=O)CN(c2cccc(C)c2C)S(=O)(=O)c2ccccc2)cc1OC -2.11%, CCCCNC(=O)C1CCCN(c2nnc(C)c3c(C)n(-c4ccc(Cl)cc4)nc23)C1 (stereo not drawn) -8.02%, O=C(CSc1nnc(-c2cccs2)o1)Oc1ccc(Cl)cc1 -10.1%, COc1cc2c(=O)c(S(=O)(=O)c3ccc(C)cc3)cn(Cc3cccc(C)c3)c2cc1OC -5.8%, CC1CN(C(=O)N2CCC(C(=O)NCCC3=CCCCC3)CC2)c2ccccc2O1 (stereo not drawn) -8.14%, CCN(CC)CCN(C(=O)c1ccc(C(=O)OC)cc1)c1nc2ccc(Cl)cc2s1 -5.17%, CCOC(=O)C1(C)C=C(Nc2ccc(C)cc2)C(=O)N1c1ccccc1 (stereo not drawn) -16.8%, CC(C)c1ccc(S(=O)(=O)Nc2ccc(O)c(Sc3nc4ccccc4s3)c2)cc1 -38.2%, CC(=O)c1ccc(NC(=O)CSc2nccn2Cc2ccco2)cc1 -7.17%, CSc1cccc(NC(=O)C2CCN(S(=O)(=O)c3ccc4[nH]c(=O)ccc4c3)CC2)c1 -3.36%, COc1ccc(CNC(=O)Cc2ccc(NC(=O)N3CCCCc4ccccc43)cc2)cc1 -12.9%, CCOc1ccc(NC(=O)c2cc(S(=O)(=O)N3CCC(C)CC3)cn2C)cc1 0.652%, CC1CCCN(c2ncnc3c2nnn3C)C1 (stereo not drawn) -5.71%, CCC1CN(C(=O)N2CCC(C(=O)NCc3ccccc3F)CC2)c2ccccc2O1 (stereo not drawn) 2.31%, CCCOC(=O)c1cccc(Nc2nc(C(=O)OCC)nc3ccccc23)c1 -1.52%, O=C(Nc1ccc(C(F)(F)F)cc1)C1(c2cccs2)CCOCC1 -12.1%, Cc1cc(C)cc(NC(=O)c2cc(S(=O)(=O)N3CCCCC3)c[nH]2)c1 -10.9%, CC(Oc1ccccc1F)C(=O)NCC1(N2CCOCC2)CCCCC1 (stereo not drawn) 16.5%, Cc1ccc(NC(=O)c2c(C)oc3ncnc(N4CCCCC4)c23)c(C)c1 1.22%, Cc1ccc(-c2nn3c(C)nnc3c3ccccc23)cc1S(=O)(=O)NC(C)(C)CO -17.1%, COc1cccc(CNC(=O)Nc2ccc3c(c2)N(C)C(=O)c2ccccc2S3)c1 11.5%, Cc1ccccc1NC(=O)C1CCN(S(=O)(=O)c2cccc3nonc23)CC1 4.88%, COc1ccc(CNC(=O)C2CCN(c3nnc(C)c4c(C)n(-c5ccc(C)cc5)nc34)CC2)cc1 -9.21%, CCc1ccc(NC(=O)c2sc3nc(C)cc(C)c3c2NC(=O)c2ccccc2)cc1 -25.8%, COc1ccc(/C=C/C(=O)Nc2cccc(F)c2)cc1 -8.33%, CN(C)S(=O)(=O)c1ccc2c(c1)N(CC(=O)N1CCC(C(N)=O)CC1)CCS2 -13.4%, Cc1ccc(C)c(NC(=O)Cn2cc(S(=O)(=O)c3ccc(F)cc3)c(=O)c3cc(F)ccc32)c1 -14.8%, O=C(Nc1nnc2n1CCS2)c1cc(C(F)(F)F)cc(C(F)(F)F)c1 -9.28%, CCOc1ccc(N(C)S(=O)(=O)c2cc(-c3cnc(C)o3)ccc2OC)cc1 -2.93%, COc1ccc(-c2cc(C(F)(F)F)n3nc(C(=O)Nc4ccc(Cl)cc4C(F)(F)F)cc3n2)cc1OC -13.7%, Cc1cccc(C)c1NC(=O)Cn1c(=O)n(CCC(=O)NCc2ccc3c(c2)OCO3)c(=O)c2sccc21 -6.7%, COc1ccc(C(=O)N2CCN(CCc3ccccn3)CC2)cc1 -18.8%, Cc1ccc(NC(=O)C2CCCN(c3nc4ccccc4s3)C2)c(C)c1 (stereo not drawn) -2.2%, Cc1ccc(NC(=O)c2cnc(SCC(=O)N3CCCc4ccccc43)n(C)c2=O)cc1C -7.41%, Cc1oc(-c2ccccc2)nc1Cn1c(=O)cc(-c2ccccc2)c2c(C)nn(C)c21 -12.9%, COc1ccc(OCC(=O)Nc2ccc3c(c2)N(C)C(=O)c2ccccc2S3)cc1 -10.8%, CCn1c(=O)c2cc(C(=O)NCCc3ccc(OC)c(OC)c3)sc2c2ccccc21 -9.92%, Cc1ccc2nc(Cl)c3cc(C(=O)N4CCCC(C)C4)sc3c2c1 (stereo not drawn) -7.88%, COc1ccc(-c2cc(C(=O)Nc3c(C(=O)c4ccc(C)c(F)c4)oc4ccccc34)no2)cc1 3.58%, CCOc1ccc(CNC(=O)c2ccc(Sc3ccc(C)cc3)c(N)c2)cc1OC -0.111%, CC(C)CN(CC(C)C)c1nnc(NC(=O)Nc2cccc(C(F)(F)F)c2)s1 -15%, CC1=C(C(=O)Nc2ccc(C)cc2C)C(c2cc(Br)ccc2F)n2ncc(C(=O)Nc3ccc(C)cc3)c2N1 (stereo not drawn) -14.2%, COc1ccc(-c2cc(C(F)(F)F)n3nc(C(=O)Nc4cccc(Cl)c4Cl)cc3n2)cc1OC -1.83%, CCOC(=O)c1cc(-c2ccc(C)cc2)n(CC(=O)Nc2cc(C)ccc2C)c1C -12%, CCc1ccccc1NC(=O)c1cc(S(=O)(=O)N2CCC(C)CC2)cn1C -3.85%, O=C(CCS(=O)(=O)c1nc(-c2ccc3c(c2)OCO3)cc(C(F)(F)F)n1)Nc1ccccc1C(F)(F)F -0.626%, COC(=O)Cn1c(SCCOc2ccccc2Cl)nc2ccccc21 0.338%, COC(=O)CSc1nnc(-c2cccc(O)c2)o1 -11.3%, COc1ccc(C(C)=O)cc1CSc1nc(NCc2ccc(Cl)cc2)c2ccccc2n1 -5.4%, Cc1ccc(S(=O)(=O)N2CCC(c3nnc(-c4cccc(C)c4)o3)CC2)cc1 -4.32%, CCOc1ccc(CNC(=O)CCc2c(C)nn(-c3ccc(N4CCOCC4)nn3)c2C)cc1 -5.1%, Cc1ccc(SCC(=O)Nc2ccc3oc(-c4ccc(F)cc4)nc3c2)cc1 -13.3%, CCc1ccc(CNC(=O)c2ccc(NC(=O)N3CCSc4ncccc43)cc2)cc1 -9.58%, CCc1nc2nc(C)cc(Nc3cc(Cl)ccc3OC)n2n1 -27.6%, COc1ccc(C(=O)NCc2nnc(SCC(=O)Nc3ccc(C)cc3)n2-c2ccccc2)cc1 -15.5%, Cc1ccc(S(=O)(=O)c2nc(-c3ccco3)oc2SCC(=O)c2ccc(Cl)cc2)cc1 -12.9%, CCOc1ccc(Nc2cc(C)c(C#N)c3nc4ccccc4n23)cc1 -8.61%, Cc1cccc(N(C)C(=O)CS(=O)(=O)c2cccc3nsnc23)c1 -13.9%, Cc1ccc(C(C)C)c(OCc2ccc(C(=O)Nc3ccc(S(N)(=O)=O)cc3C)o2)c1 -19.6%, COc1cccc(CNC(=O)c2ccc3c(Cl)c4c(nc3c2)CCCC4)c1 -1.46%, CC(C)NC(=O)Cn1c(=O)nc(-c2ccccc2)c2ccccc21 -3.87%, CCOc1ccc(CCNC(=O)c2ccc(C)c(-n3cnc4cccnc43)c2)cc1 -8.66%, Cc1nc(-n2nc(C)c(CCC(C)C)c2C)sc1C(=O)Nc1cccc(Cl)c1C -4.3%, CCOC(=O)c1c(NC(=O)c2ccccc2C)sc2c1CCCC2 -17.8%, O=C(CN1C(=O)COc2ccc(S(=O)(=O)N3CCCC3)cc21)NCCc1ccc(Cl)cc1 -23.3%, CCCCN(CCCC)C(C(N)=O)c1ccc(OC)cc1 (stereo not drawn) -7.31%, O=C(OCc1ccco1)c1ccc2c(c1)N(Cc1ccc([N+](=O)[O-])cc1)C(=O)c1ccccc1S2 -9.69%, Brc1ccc(-c2nc(N3CCN(c4ccccc4)CC3)c3ccccc3n2)cc1 -28.7%, Cn1nnnc1SCCCNCc1ccc(-c2cccc(Cl)c2)o1 -20.9%, O=c1[nH]c2ccc(NS(=O)(=O)c3ccc(F)cc3)cc2s1 -31.4%, CCOc1ccc2nc(N3CCN(C(=O)C(C)C)CC3)sc2c1 -11.5%, COc1cc(OC)c(C(=O)CCCN2CCCC2)c(OC)c1 -9.28%, CC(C)c1ccc(NC(=O)c2cc(S(=O)(=O)NC3CCCCC3)ccc2F)cc1 -4.75%
